Read counts are not given, so values of variants with three or more changes are uncertain.
B1: CPEB3 Ribozyme (parent)
chain: UAACAGGGGGCCACAGCAGAAGCGUUCACGUCGCAGCCCCUGUCAGAUUCUGGUGAAUCUGCGAAUUCUGCUGUAUAUCUC

Variants of: B1
Experiment: self-cleavage, relative activity (ratio to wild type); higher = more cleavage; in vitro, sequencing
How it was run: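 For each CPEB3 ribozyme variant, relative activity is its cleaved/total read fraction divided by the unmutated ribozyme's. Barcoded error-prone PCR libraries were transcribed by T7 RNA polymerase (5 hours, 37°C) and held in DNase I for 15 min before an EDTA stop, with cleavage occurring throughout. Template-switching reverse transcription and Illumina sequencing were used to read the RNAs. A 5-read minimum applied, and results are the mean of three batches.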

Row | Variant | self-cleavage
1 | UAACAGGGGGCUACAGCUGAGGCGUUCACGUCGCAGCCCCUGACAGAUUCUGGUGAAUCUGCGAAUUCUGCUGUAUAUCUC [C12U A18U A21G U43A] | 0.25
2 | UAACAGGGGGCUACAGCUGAAGCGUUCACGUCGCAGCCCCUGUUAGAUGCUGGUGAAUCUGCGAAUUCUGCUGUAAAUCUC [C12U A18U C44U U49G U76A] | 0.07
3 | UAACAGGGGGCUACAGCUGAAGCGUCCACGUCGCAGCCCCUGUCUGCUUCUGGUGAAUCUGCGAGUCCUGCUGUAUAUCUC [C12U A18U U26C A45U A47C A65G U67C] | 0.04
4 | UAACAGGGGGCUACAGCAGGGGCGUUCACGUCGCAGCCCCUGUCGGAUUCUGGUGAAUCUGCGAAUUCCGCUGUAUACCUC [C12U A20G A21G A45G U69C U78C] | 0.04
5 | UAACAGGGGGCUACAGCAGGAGUGUUCACGUCGCUGCCCCUGUCAGAUUCUGGUGAGUCUGCGGAUUCUGCUGUAUAUCCC [C12U A20G C23U A35U A57G A64G U80C] | 0.07
6 | UAACAGGGGGCUACAGCAGGAGCGUUCAUGACGCAGCCCCUGUCAGAUUCAGGUGAAUCUGCGAAUUCUGCUGUAUAUCCC [C12U A20G C29U U31A U51A U80C] | 0.15
7 | UAACAGGGGGCUACAGCAGGAGCGUUCAUGUCGCAGCCCCUGUCAGAUUCUGGUGAAUCUGCGAAUUCCGCUGUAUAUCUC [C12U A20G C29U U69C] | 0.16
8 | UAACAGGGGGCUACAGCAGGAGCGUUCACGGCGCAGCCCCUGUCAGGUUCUGGUGAAUCUGCGAAUUCUGCUGUAUAUCUC [C12U A20G U31G A47G] | 0.92
9 | UAACAGGGGGCUACAGCAGGAGCGUUCACGUCGCAGCCCCCGUCAGAUUCUGGUGAAUCUGCGAAUUCUGCUGUAUAUCUC [C12U A20G U41C] | 1.24
10 | UAACAGGGGGCUACAGCAGGAGCGUUCACGUCGCAGCCCCUGUCAGAUACAGGUGAAUCUGCGAAUUCUGCUGUAUUUCUC [C12U A20G U49A U51A A77U] | 0.47
11 | UAACAGGGGGCUACAGCAGACGCGUUCACGUCGCAGCCCCUGUCAGAUUCUGGUGGUUCCGCGAAUUCUGCCGUAUAUCUC [C12U A21C A56G A57U U60C U72C] | 0.13
12 | UAACAGGGGGCUACAGCAGAGGCGUUCUCGUCGCAGCCCCUGUCAGAUUCUGGUGAAUCAGCGAAUUCUGCUGUAUAUCUC [C12U A21G A28U U60A] | 0.14
13 | UAACAGGGGGCUACAGCAGAGGCGUCCACGUCGCAGCCCCUGUCAGUUUCCGGUGAAUCUGCGAAUUCUGCUGUAUAUCUU [C12U A21G U26C A47U U51C C81U] | 0.21
14 | UAACAGGGGGCUACAGCAGAGGCGUCCACGUCGCAGCCCCUGUCAGAUUCCGGUGAAUCUGCGAAUUCUGCUGUAUAUCUU [C12U A21G U26C U51C C81U] | 0.45
15 | UAACAGGGGGCUACAGCAGAGGCGUUCACGUCGCAGCCCCUGACAGAUUCUGGUGAAUCUGCGAAUUCUGCUGUAUAUCAC [C12U A21G U43A U80A] | 1.09
16 | UAACAGGGGGCUACAGCAGAGGCGUUCACGUCGCAGCCCCUGUCAGAAACUGGUGAAUCUGCGAAUUCUGCUGCAUAUCUC [C12U A21G U48A U49A U74C] | 0.93
17 | UAACAGGGGGCUACAGCAGAUGCGUUCACGUCGCAGCCCCUGUCAGAUUCUGGUGAAUCUGCGAGUUCUGCUGUAUAUCUC [C12U A21U A65G] | 0.4

Row | Variant | self-cleavage
18 | UAACAGGGGGCUACAGCAGAUGCGUUCACGUCGCAGCCCUUGACAGAUUCUGGUGAAUCUACGAAUUCUGCUGUAUAUCUC [C12U A21U C40U U43A G61A] | 0.14
19 | UAACAGGGGGCUACAGCAGAAGCGUUCGCGUCGCAGCCACUGUCAGAUUCUGGUGAAUCUGCGAAUUCUGCUGUAUAUCUC [C12U A28G C39A] | 0.05
20 | UAACAGGGGGCUACAGCAGAAGCGUUCGCGUCGCAGCCCCUGUCAGAUUCUGGUGAAUCUGCGAAUUCUGCUGAAUAUCUC [C12U A28G U74A] | 1.25
21 | UAACAGGGGGCUACAGCAGAAGCGUUCACGUCGCGGCCCCCGUCAGAUUCUGGUGAAUCUGCGAAUUCUGCUGUAUAUCUC [C12U A35G U41C] | 1.33
22 | UAACAGGGGGCUACAGCAGAAGCGUUCACGUCGCAGCCCCUGUCCGAUUCUGGUGAAUCUGCGAAUUCUGCUGUGUAUCUC [C12U A45C A75G] | 1.1
23 | UAACAGGGGGCUACAGCAGAAGCGUUCACGUCGCAGCCCCUGUCGGAUUCUGGUGAGUCUGCGAAUUCUGCUGUAUAUCUC [C12U A45G A57G] | 0.99
24 | UAACAGGGGGCUACAGCAGAAGCGUUCACGUCGCAGCCCCUGUCGGAUUCUGAUGAAUCCGCGAAUUCUGCUGUAUAUCUC [C12U A45G G53A U60C] | 1.46
25 | UAACAGGGGGCUACAGCAGAAGCGUUCACGUCGCAGCCCCUGUCUGAUUCUGGUGAGUCUGCGAAUUCUGCUGUAUAUCCC [C12U A45U A57G U80C] | 0.47
26 | UAACAGGGGGCUACAGCAGAAGCGUUCACGUCGCAGCCCCUGUCAGGUUCUGGUGAAUCUGCGAAUUCCGCUGUAUAUCUC [C12U A47G U69C] | 1.02
27 | UAACAGGGGGCUACAGCAGAAGCGUUCACGUCGCAGCCCCUGUCAGUUUCUGGUGAAUCUGCCAAUUCUGCUGCAUAUCUC [C12U A47U G63C U74C] | 1.27
28 | UAACAGGGGGCUACAGCAGAAGCGUUCACGUCGCAGCCCCUGUCAGAUUCUGGUGGGUCUGCGAAUUCUGCUGUAUAUCUC [C12U A56G A57G] | 0.84
29 | UAACAGGGGGCUACAGCAGAAGCGUUCACGUCGCAGCCCCUGUCAGAUUCUGGUGGAUCUGCGAAUUCUGCUGUAUAUCCC [C12U A56G U80C] | 1.18
30 | UAACAGGGGGCUACAGCAGAAGCGUUCACGUCGCAGCCCCUGUCAGAUUCUGGUGAAUCUGCGGAUUCUGCUGUUUAUCUC [C12U A64G A75U] | 1.28
31 | UAACAGGGGGCUAUAGCAGAGGCGUUCACGUCGCAGCCCCUGUCAGAUCCUGGUGAAUCUGCGAAUUCUGCUGUAUAUCUC [C12U C14U A21G U49C] | 0.17
32 | UAACAGGGGGCUAUAGCAGAAGCGUUCACCUCGCUGCCCCUGUCAGAUUCUGGUGAAUCUGCCAAUUCUGCUGUAUAUCUC [C12U C14U G30C A35U G63C] | 0.17
33 | UAACAGGGGGCUACAGCAGAAGUGUUCACGUCGCAGCCCCUGACAGAUUCUGGCGAAUCUGCGGAUUCUGCUGUAUAUCUC [C12U C23U U43A U54C A64G] | 0.24
34 | UAACAGGGGGCUACAGCAGAAGCGUUAACGUCGCAGCCCCUGUCAGAUCCCGGUGAAUCUGCGCAUUCUGCUGUAUAUCUC [C12U C27A U49C U51C A64C] | 0.05
